Data reported in PubChem BioAssay (NCATS).
Inconclusive results, whose numbers are uncertain, are shown with a selection of clear calls. A potency beside an inconclusive call is a rough fit, not a confirmed value. Activity calls are given as the source filed them. Calls follow the shape of the dose curve; as a rule, active = well fitted cell-killing curve with a large enough effect; inconclusive = small, poorly fitted or top-dose-only effect, or effect the other way; inactive = flat fitted curve, though single readings scatter.

Assays:
Assay in all cases: Primary qHTS to identify gynecologic anti-cancer compounds using libraries of approved drugs and bioactive compounds (AID 1345084); also: nearly all actives have a fitted effect of over 55% in size
Conditions in all cases: Gynecologic cancer cell panel viability, ATPlite luminescence, 48 h; series mostly up to 57.5 µM
PA-1 = system: PA-1
In short: (§1)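 Cell viability after 48 h drug treatment, ATPlite luminescence readout; five doses.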

SKOV3 = system: SKOV3
In short: as §1

Tov-21-G = system: Tov-21-G
In short: as §1

Tov112D = system: Tov112D
In short: as §1
Potency is read from the fitted curve at half-maximal effect; tags tell the direction and shape of the fitted curve.

SMILES | Potency (PA-1) | Potency (SKOV3) | Potency (Tov-21-G) | Potency (Tov112D)
COC1CC(O[C@H]2CC[C@]3(C)C4CC[C@]5(C)[C@@H](C6=CC(=O)OC6)[C@@H](OC(C)=O)C[C@]5(O)C4CC[C@@H]3C2)OC(C)C1O (stereo not given in full) | active: 0.891 µM | active: 0.794 µM | active: 0.708 µM | –
CCOP(=O)(NC(C)C)Oc1ccc(SC)c(C)c1 (stereo not given) | inactive | inconclusive: 5.01 µM [rising, partial curve, poor fit] | – | –
CC/C=C/C=C/C1(C)OC(OC)=C(C(=O)C2C(C)C(=O)c3cc(OC)c(O)c(O)c3C2(C)O)C1=O (stereo not given) | inconclusive: 8.91 µM [cytotoxic, single point] | inconclusive: 8.91 µM [cytotoxic, single point] | inconclusive: 10 µM [cytotoxic, single point] | –
C/C=C(/C)C(=O)O[C@H]1C(C)=C2[C@H]([C@@H]1OC(=O)CCCCCCC)[C@@](C)(OC(C)=O)C[C@H](OC(=O)CCC)[C@@]1(O)[C@H]2OC(=O)[C@@]1(C)O | active: 0.158 µM | inconclusive: 39.8 µM [cytotoxic, partial curve, poor fit] | inconclusive: 2.24 µM [cytotoxic, partial curve, poor fit] | –
C=C(CO)[C@@]12O[C@@H]1[C@@]1(C)C(=CC2=O)CC[C@@H](O)[C@@H]1C | inconclusive: 35.5 µM [cytotoxic, single point] | inconclusive: 25.1 µM [cytotoxic, single point] | inconclusive: 28.2 µM [cytotoxic, single point] | inconclusive: 35.5 µM [cytotoxic, single point]
